# Data reported in PubChem BioAssay AID504333 (National Center for Advancing Translational Sciences (NCATS), 2011).
# Out of some 360,000 compounds screened, about 16,000 (4.4%) were called active. Inconclusive results, whose numbers are uncertain, are shown with a selection of clear calls. The call rests on the fitted dose curve; in most records, active means well fitted inhibition curve with a large enough effect; inconclusive means small, poorly fitted or top-dose-only effect; inactive means no such curve, though single readings can be large or run the other way. Where the call is inconclusive, the potency comes from a doubtful curve fit.
# Molecular target: Bromodomain adjacent to zinc finger domain protein 2B (Homo sapiens) (UniProt Q9UIF8)
# Test: qHTS Assay for Inhibitors of BAZ2B; further: nearly all actives have a fitted effect of over 60% in size
# Details: AlphaScreen BAZ2B-H3K14Ac peptide displacement; activity change, negative = inhibition: at 114 µM (top of the series) unless noted
# In short: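 Compounds, titrated to a top concentration of 110 uM, were incubated 30 min at room temperature with preformed BAZ2B/acetyl-K14 H3 peptide complex (50 nM each). Proximity signal was measured by AlphaScreen after 20 min with beads.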
# On the % scale 0 is the no-effect control and ±100 the full control effect; potency means the concentration at half of the fitted maximal effect; tags describe the fitted curve by direction and shape.
# UniProt Q9UIF8, sequence (Q9UIF8 whole entry, looked up, the tested form may be a part): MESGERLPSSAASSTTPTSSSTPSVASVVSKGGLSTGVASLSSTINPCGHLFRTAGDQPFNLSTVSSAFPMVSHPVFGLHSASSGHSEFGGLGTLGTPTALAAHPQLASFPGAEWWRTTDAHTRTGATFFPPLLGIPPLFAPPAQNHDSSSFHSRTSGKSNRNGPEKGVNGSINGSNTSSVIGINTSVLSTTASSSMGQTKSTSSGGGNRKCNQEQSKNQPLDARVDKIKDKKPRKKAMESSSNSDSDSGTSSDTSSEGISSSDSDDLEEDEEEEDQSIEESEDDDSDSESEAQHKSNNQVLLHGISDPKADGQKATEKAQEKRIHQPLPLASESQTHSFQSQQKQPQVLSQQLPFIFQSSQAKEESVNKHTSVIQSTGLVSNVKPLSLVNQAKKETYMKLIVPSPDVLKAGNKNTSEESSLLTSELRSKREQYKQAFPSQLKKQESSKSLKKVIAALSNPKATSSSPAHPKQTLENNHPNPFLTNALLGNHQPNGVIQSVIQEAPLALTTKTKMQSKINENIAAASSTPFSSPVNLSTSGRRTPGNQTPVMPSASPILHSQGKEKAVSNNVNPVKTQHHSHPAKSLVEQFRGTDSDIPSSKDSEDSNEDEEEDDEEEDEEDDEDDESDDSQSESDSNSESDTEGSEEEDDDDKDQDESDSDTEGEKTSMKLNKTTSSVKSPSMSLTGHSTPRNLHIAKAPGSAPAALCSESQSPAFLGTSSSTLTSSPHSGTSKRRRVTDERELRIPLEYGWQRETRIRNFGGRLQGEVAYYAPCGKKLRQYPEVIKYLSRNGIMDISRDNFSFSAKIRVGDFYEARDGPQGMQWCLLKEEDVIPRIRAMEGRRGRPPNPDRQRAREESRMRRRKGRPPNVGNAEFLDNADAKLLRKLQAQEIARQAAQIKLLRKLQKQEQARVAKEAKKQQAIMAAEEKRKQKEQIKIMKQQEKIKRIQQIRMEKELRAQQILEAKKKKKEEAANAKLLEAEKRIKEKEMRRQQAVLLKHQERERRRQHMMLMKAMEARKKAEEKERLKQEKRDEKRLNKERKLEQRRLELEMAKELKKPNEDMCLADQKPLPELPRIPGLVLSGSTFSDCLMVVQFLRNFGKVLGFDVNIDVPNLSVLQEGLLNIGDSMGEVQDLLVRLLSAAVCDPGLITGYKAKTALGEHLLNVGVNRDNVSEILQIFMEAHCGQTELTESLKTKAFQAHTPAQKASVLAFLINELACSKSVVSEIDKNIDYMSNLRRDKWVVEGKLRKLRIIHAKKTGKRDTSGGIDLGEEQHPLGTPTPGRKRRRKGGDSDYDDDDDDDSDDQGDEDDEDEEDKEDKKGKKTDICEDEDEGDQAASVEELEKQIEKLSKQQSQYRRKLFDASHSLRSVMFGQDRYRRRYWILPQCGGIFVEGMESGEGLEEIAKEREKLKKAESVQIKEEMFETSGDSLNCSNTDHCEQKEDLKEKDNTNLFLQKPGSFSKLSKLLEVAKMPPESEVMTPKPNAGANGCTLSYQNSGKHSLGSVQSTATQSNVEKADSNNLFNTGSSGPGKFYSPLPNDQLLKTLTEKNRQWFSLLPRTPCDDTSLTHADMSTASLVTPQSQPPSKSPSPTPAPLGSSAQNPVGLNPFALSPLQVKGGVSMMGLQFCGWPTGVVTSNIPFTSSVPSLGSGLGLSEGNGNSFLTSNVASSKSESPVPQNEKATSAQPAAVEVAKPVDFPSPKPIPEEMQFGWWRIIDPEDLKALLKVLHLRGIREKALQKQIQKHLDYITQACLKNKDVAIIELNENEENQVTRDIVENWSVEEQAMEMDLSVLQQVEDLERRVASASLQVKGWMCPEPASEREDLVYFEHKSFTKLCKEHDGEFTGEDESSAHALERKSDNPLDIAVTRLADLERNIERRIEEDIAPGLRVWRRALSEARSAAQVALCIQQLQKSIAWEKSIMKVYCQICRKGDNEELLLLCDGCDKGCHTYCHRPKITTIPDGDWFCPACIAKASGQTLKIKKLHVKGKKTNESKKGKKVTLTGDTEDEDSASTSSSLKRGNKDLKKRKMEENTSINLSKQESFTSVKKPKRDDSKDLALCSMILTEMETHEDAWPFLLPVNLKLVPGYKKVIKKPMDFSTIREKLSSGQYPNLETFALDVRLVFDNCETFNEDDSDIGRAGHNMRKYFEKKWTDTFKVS
Compound,Potency,"activity change, negative = inhibition"
O=C(NCC(c1ccco1)N1CCCCC1)c1cccc(S(=O)(=O)Nc2ccccc2Cl)c1 (centres undefined),"inconclusive: 89.1 µM [inhibitor, single point]",–
O=C(Nc1cccc(NC(=O)c2ccco2)n1)c1ccco1,–,inactive: 1.43%
Fc1ccc(Nc2cccc3nccnc23)cc1,"inconclusive: 44.7 µM [inhibitor, partial curve]",–
C/C(=N/Nc1nc(-c2ccccc2)c(CC(=O)O)s1)c1ccccc1,"inconclusive: 44.7 µM [inhibitor, partial curve]",–
CCC(C)C(=O)Nc1nnc(SCC(=O)Nc2ccccc2F)s1 (centres undefined),–,inactive: -24.1%
CCOCCCNCc1cccc(OC)c1,"inconclusive: 89.1 µM [inhibitor, single point]",–
O=C1/C(=C/c2cccnc2)SC(=S)N1Nc1ccccc1,"inconclusive: 44.7 µM [inhibitor, partial curve]",–
O=C1NC(c2ccccc2O)Nc2ccccc21 (centres undefined),–,inactive: 8.18%
COc1cc(CN2CCN(c3cccc(C)c3C)CC2)cc(OC)c1O,active: 50.1 µM,–
CCOc1ccccc1-n1nnnc1SCC(=O)O,"inconclusive: 79.4 µM [inhibitor, single point]",–
O=C(/C=C/c1ccncc1)c1ccc(NC(=O)c2ccccc2F)cc1,active: 50.1 µM,–
Cc1cccc(-n2nc3c(c2NC(=O)c2ccc(Br)o2)CSC3)c1,–,inactive: -35%
CC12CCC(=O)N1C(C(=O)Nc1ccc(F)cc1)CS2 (centres undefined),–,inactive: 4.01%
Oc1ccc(/C=N/Nc2ccc(C(F)(F)F)cn2)cc1O,"inconclusive: 20 µM [inhibitor, full curve, poor fit]",–
C/C(=N\NC(=O)CNc1cccc(C)c1)c1ccc(Br)s1,"inconclusive: 44.7 µM [inhibitor, partial curve]",–
Brc1ccc(C2Nc3cccc4cccc(c34)N2)o1,"inconclusive: 70.8 µM [inhibitor, single point]",–
Cc1ccc(-n2ncc3c(NC4CCCCC4)ncnc32)cc1C,–,inactive: -0.183%
Cc1cc(C)nc(NC(=O)c2c(C(=O)O)noc2C)n1,"inconclusive: 89.1 µM [inhibitor, single point]",–
C/C(=C\C(=O)c1ccc(C)o1)Nc1ccc2c(c1)OCO2,"inconclusive: 44.7 µM [inhibitor, partial curve]",–
COc1cccc(N/C=C/C(=O)c2ccc(OC)c(OC)c2)c1,"inconclusive: 89.1 µM [inhibitor, single point]",–
CN(CC1CCCN(CCc2cccc(C(F)(F)F)c2)C1)C(=O)c1cc2ccccc2o1 (centres undefined),"inconclusive: 79.4 µM [inhibitor, single point]",–
CCN(CC)c1ccc(/C=N/Nc2cccc(C)c2)c(O)c1,active: 50.1 µM,–
Nc1nnc2c(n1)CCCC2,active: 50.1 µM,–
C=CCc1c(C)nc(C)nc1N/N=C/c1ccccc1O,active: 50.1 µM,–
Clc1ccccc1-c1nc2ccccc2[nH]1,"inconclusive: 89.1 µM [inhibitor, single point]",–

Compound,Potency,"activity change, negative = inhibition"
COC(=O)c1[nH]c2ccc(C)cc2c1NC(=O)CN1CCCC(C)(C)C1,–,inactive: -6.39%
O=C1CCCc2[nH]c(-c3ccccc3)nc21,"inconclusive: 89.1 µM [inhibitor, single point]",–
Cc1nc2ccn(Cc3ccccc3)c(=O)c2cc1C(=O)N1CCN(c2ccccc2)CC1,"inconclusive: 89.1 µM [inhibitor, single point]",–
COc1cc(/C=N/Nc2nc3ccccc3s2)cc([N+](=O)[O-])c1O,active: 35.5 µM,–
Cn1c(=O)c2c(nc3sccn32)n(C)c1=O,"inconclusive: 50.1 µM [inhibitor, single point]",–
COc1ccc2cc3cc(C(=O)NCc4ccco4)oc3nc2c1,"inconclusive: 31.6 µM [inhibitor, single point]",–
C/C(CC(=O)Nc1ccc(Cl)cc1)=N\NC(=O)C(=O)N1CCCCC1,–,inactive: -1.89%
C=CCNc1cc(N2CCCC2)ccc1[N+](=O)[O-],"inconclusive: 25.1 µM [inhibitor, full curve]",–
CCOc1ccc(/C=N/NC(=O)C(O)c2ccccc2)c(O)c1 (centres undefined),–,inactive: 11.1%
Cc1ccc(CNC(=O)CCS(=O)(=O)c2ccc(Br)cc2)cc1,"inconclusive: 3.98 µM [inhibitor, full curve, poor fit]",–
O=C(Nc1ccccc1[N+](=O)[O-])C1C(c2ccccc2)=C1c1ccccc1,"inconclusive: 10 µM [inhibitor, partial curve]",–
CCCCOC(=O)c1ccc(NC(=O)Nc2ccc(OC)c(OC)c2)cc1,"inconclusive: 12.6 µM [inhibitor, single point]",–
COC(=O)c1c(NC(=O)c2cc(=O)c3cc(C)cc(C)c3o2)sc2c1CCC2,–,inactive: -7.13%
CC1(OC(=O)C2CCCC2)C(=O)C=C2C=C(c3ccsc3)N(CCc3c[nH]c4ccccc34)C=C2C1=O (centres undefined),"inconclusive: 44.7 µM [inhibitor, partial curve]",–
COc1ccc(CC(=O)Nc2ccc(-c3cn4ccccc4n3)cc2)cc1OC,"inconclusive: 89.1 µM [inhibitor, single point]",–
O=C(CCC(=O)OCCCC(F)(F)C(F)(F)F)Nc1ccc(Cl)cc1Cl,"inconclusive: 89.1 µM [inhibitor, single point]",–
COc1ccccc1NC(=O)c1cc2cc3ccc(OC)c(Cl)c3nc2s1,active: 79.4 µM,–
Cc1ccc2c(c1)C(=O)C(=O)N2CC(=O)OC(C)C,"inconclusive: 89.1 µM [inhibitor, single point]",–
CCOc1ccc(CCNC(=O)c2c3c(nc4ccccc24)C(=O)N(C2CCCCC2)C3)cc1,"inconclusive: 89.1 µM [inhibitor, single point]",–
Cc1onc(-c2ccccc2)c1C(=O)N/N=C/c1ccc([N+](=O)[O-])s1,"inconclusive: 70.8 µM [inhibitor, single point]",–
Cc1cccc(C)c1Nc1nnc(SCC(=O)Nc2ncc(C(F)(F)F)cc2Cl)s1,–,inactive: -7.09%
Cc1ccc(Cl)cc1NS(=O)(=O)c1ccc(-n2cccn2)cc1,–,inactive: -14.1% [at 57.1 µM]
CCOc1ccc2c(c1)NC(c1ccc(OCC)c(OCC)c1)=NC(c1ccc(F)cc1)=N2,"inconclusive: 10 µM [inhibitor, full curve]",–
COc1ccc(N2CCN(C(=O)c3[nH]c4ccc(OC)cc4c3C)CC2)cc1,"inconclusive: 50.1 µM [inhibitor, partial curve]",–
CC(=O)c1sc(NS(=O)(=O)c2ccc(C)cc2)nc1-c1ccccc1,"inconclusive: 89.1 µM [inhibitor, single point]",–

Compound,Potency,"activity change, negative = inhibition"
CNC(=O)c1cc2c(-c3ccccc3)nn(C)c2s1,"inconclusive: 79.4 µM [inhibitor, partial curve]",–
CC1CCCC(NC(=O)COC(=O)Cc2cn3ccsc3n2)C1C (centres undefined),–,inactive: 1.65%
Cc1cccc(C(=O)Oc2csc(=S)n2C(=O)c2cccc(C)c2)c1,"inconclusive: 79.4 µM [inhibitor, single point]",–
Cc1nc2cc(N=NC3=C(O)CCCC3=O)ccc2s1,active: 56.2 µM,–
CN(C)c1ccc(Cl)cc1N,"inconclusive: 56.2 µM [inhibitor, partial curve]",–
COc1ccc(/C(C)=N/NC(=O)CNC(=O)/C=C\c2ccco2)cc1,active: 79.4 µM,–
Cc1cccc(C)c1OCC(=O)N=Nc1c(O)[nH]c2ccc(Br)cc12,–,inactive: -5.11%
O=C1/C(=C\c2ccc(O)c(O)c2)SC(=S)N1Cc1ccccc1,active: 8.91 µM,–
Cc1ccccc1C(OCCN(C(C)C)C(C)C)c1ccccc1 (centres undefined),"inconclusive: 89.1 µM [inhibitor, single point]",–
C/C(=N\NC(=O)c1ccc(N/N=C(\C)c2ccc(O)cc2)cc1)c1ccc(O)cc1,"inconclusive: 70.8 µM [inhibitor, single point]",–
Cc1ccc(C(C)C)c(OCC(O)CN2CCOCC2)c1 (centres undefined),–,inactive: 14.6%
CCN(c1ccccc1)S(=O)(=O)c1cc(CN2C(=O)c3cccnc3C2=O)ccc1OC,"inconclusive: 56.2 µM [inhibitor, partial curve]",–
O=C(NC(=S)N1CCN(c2ccc([N+](=O)[O-])cc2)CC1)c1ccccc1Cl,"inconclusive: 56.2 µM [inhibitor, partial curve]",–
CS(=O)(=O)N(Cc1ccccc1)c1ccc(C(=O)Nc2ccc(C(N)=O)cc2)cc1,"inconclusive: 1.26 µM [inhibitor, full curve, poor fit]",–
CCC(C)(C)n1nnnc1C(c1ccc(Cl)cc1)N1CCN(C)CC1 (centres undefined),"inconclusive: 100 µM [inhibitor, single point]",–
CNc1cccc2c1C(=O)c1ccccc1C2=O,active: 3.16 µM,–
NC(=O)c1nsc(C(=O)N(Cc2ccc(F)cc2)C(C(=O)NCC2CCCO2)c2ccc(O)cc2)c1N (centres undefined),–,inactive: 0.973%
Cc1ccc2nc(SCC(=O)OCc3ccccc3)nc(=O)n2c1,–,inactive: -1.84%
O=C1c2cccnc2C(Nc2ccc(F)c(Cl)c2)N1Cc1cccs1 (centres undefined),"inconclusive: 79.4 µM [inhibitor, single point]",–
FC(F)(F)Oc1ccc(NC(=S)Nc2ccc(OC(F)(F)F)cc2)cc1,"inconclusive: 20 µM [inhibitor, single point]",–
CCOC(=O)c1c(/N=C/c2ccc(C)cc2O)sc2c1CCC2,"inconclusive: 79.4 µM [inhibitor, single point]",–
COc1ccc2c(CNCc3ccco3)c(C(=O)O)n(Cc3cccc(F)c3)c2c1,"inconclusive: 89.1 µM [inhibitor, single point]",–
CN(C)c1ccc(C(CNC(=O)c2ccc(C#N)cc2)c2c[nH]c3ccccc23)cc1 (centres undefined),active: 20 µM,–
CC(=O)Oc1ccccc1/C=C/c1ccc2ccccc2[n+]1C,"inconclusive: 89.1 µM [inhibitor, single point]",–
